± gives the uncertainty stated by the source. The sequences are guide strands of siRNAs; only the seed at positions 2 to 7 varies.
Columns and labels:
[1] = system: 3LL; test: cell viability relative to siNT1 control; higher = less toxic; settings: concentration: 10 nM; 96 h; Mus musculus;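 also: Luminescence-based viability of cells reverse transfected in 384-well plates with lipid-complexed siRNAs built on a non-toxic 19mer backbone whose passenger strand carries 2′-O-methyl groups at positions 1 and 2, triplicates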
[2] = system: H460; test: cell viability relative to lipid-only control; HeyA8 human ovarian and H460 human lung cancer; M565 mouse liver and 3LL mouse lung cancer; siNT1 is a non-toxic control siRNA; higher = less toxic; settings: concentration: 10 nM; 96 h; Homo sapiens
[3] = system: HeyA8; test: as above; settings: concentration: 10 nM; 96 h; Homo sapiens
[4] = system: M565; test: as above; settings: concentration: 10 nM; 96 h; Mus musculus
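For cell viability relative to lipid-only control in this document: reverse lipid transfection in 384-well plates, in triplicate, of duplexes on a non-toxic 19mer backbone with passenger strand 2′-O-methylated at positions 1 and 2, luminescence viability read-out.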

Sequence | cell viability [1] | cell viability [2] | cell viability [3] | cell viability [4]
UCGACUGACAUGUAAACCAAA | 92.6 ± 15% | 83.4 ± 9.4% | 82.8 ± 5.5% | 74.5 ± 8.3%
UCGCCAGACAUGUAAACCAAA | 81.5 ± 15% | 76.3 ± 13% | 81.6 ± 7.3% | 62.8 ± 5.3%
UUUGGGUACAUGUAAACCAAA | 22.5 ± 5.5% | 72.5 ± 1.6% | 91.6 ± 7% | 41 ± 8.5%
UUUGCUCACAUGUAAACCAAA | 88.4 ± 4.3% | 96.3 ± 16% | 74.4 ± 5.5% | 53.9 ± 5.2%
UGAUCAUACAUGUAAACCAAA | 68.8 ± 11% | 33.4 ± 5.4% | 30.3 ± 3.3% | 25.8 ± 4%
UCUCUAAACAUGUAAACCAAA | 101 ± 11% | 43.9 ± 5.4% | 93.9 ± 14% | 63 ± 8%
UAUAGCUACAUGUAAACCAAA | 68.9 ± 6.1% | 43.6 ± 3.8% | 64.6 ± 2% | 49.5 ± 6.5%
UGAAGAGACAUGUAAACCAAA | 46.4 ± 11% | 72.4 ± 11% | 74.4 ± 4.2% | 12.1 ± 1.7%
UCCAAAUACAUGUAAACCAAA | 86.9 ± 26% | 66.7 ± 14% | 69.7 ± 1.9% | 62.4 ± 19%
UGACACAACAUGUAAACCAAA | 88.6 ± 11% | 48.3 ± 6.3% | 50.8 ± 8.8% | 34.8 ± 2%
UCGUAUAACAUGUAAACCAAA | 90.9 ± 12% | 75.1 ± 19% | 90.9 ± 4.3% | 67.7 ± 3.5%
UUACCAGACAUGUAAACCAAA | 57 ± 14% | 36.6 ± 2.5% | 70.1 ± 5.1% | 66.6 ± 17%
UCGUAGAACAUGUAAACCAAA | 87.2 ± 15% | 69.1 ± 11% | 74.3 ± 3.6% | 71.3 ± 7.4%
UGAAGGGACAUGUAAACCAAA | 23.1 ± 5.8% | 49.7 ± 6.1% | 53.6 ± 10% | 48.1 ± 1.8%
UGACGCCACAUGUAAACCAAA | 21 ± 1.7% | 43.6 ± 5.7% | 83.5 ± 12% | 13.8 ± 2.3%
UGCCAGCACAUGUAAACCAAA | 5.5 ± 2.7% | 35.6 ± 2.9% | 27.7 ± 4.7% | 19.1 ± 4.2%
UUUAUCCACAUGUAAACCAAA | 42.9 ± 5.4% | 74 ± 0.76% | 76.1 ± 9.2% | 29.5 ± 2.3%
UAGGUAAACAUGUAAACCAAA | 86.4 ± 10% | 69.7 ± 12% | 69.9 ± 4% | 56.7 ± 6.3%
UCCUCAUACAUGUAAACCAAA | 89.5 ± 20% | 80.5 ± 1.2% | 91.3 ± 3.6% | 61 ± 14%
UCCGCAUACAUGUAAACCAAA | 99.4 ± 23% | 65 ± 15% | 64.6 ± 7.5% | 52.7 ± 14%
UGUCCCCACAUGUAAACCAAA | 22.1 ± 1.1% | 35.9 ± 5.9% | 45.5 ± 2.9% | 3.86 ± 0.91%
UUUUACGACAUGUAAACCAAA | 98.1 ± 9.1% | 63.5 ± 4.7% | 101 ± 3.1% | 80.6 ± 16%
UAGAUAUACAUGUAAACCAAA | 81.7 ± 0.86% | 95.2 ± 20% | 65.5 ± 5.5% | 73.8 ± 6.4%
UAACUGGACAUGUAAACCAAA | 50.6 ± 15% | 54.2 ± 6.3% | 16.6 ± 3% | 34.6 ± 10%
UUCUUAUACAUGUAAACCAAA | 75.8 ± 13% | 62.3 ± 3.7% | 84.7 ± 6.5% | 94.2 ± 14%
UGAGGACACAUGUAAACCAAA | 33.8 ± 6.3% | 15 ± 0.53% | 18 ± 1.5% | 16.7 ± 2.7%
UGACCGAACAUGUAAACCAAA | 73.7 ± 6.2% | 52.4 ± 6.9% | 79.7 ± 10% | 28.8 ± 12%
UUAAGUAACAUGUAAACCAAA | 97.4 ± 9.3% | 88 ± 21% | 92.1 ± 6.7% | 91.2 ± 11%
UGAGGCGACAUGUAAACCAAA | 26.1 ± 5% | 64.9 ± 14% | 45.8 ± 3.5% | 5.03 ± 1.1%
UUCACCAACAUGUAAACCAAA | 82.8 ± 12% | 48.9 ± 5.7% | 92.8 ± 9.8% | 77.6 ± 8.3%

— the supplement of paper PMC6206098
